In the supplement of paper PMC4604168 (melanoma cell lines) one finds cell count data, which are given here for 22 compounds.

This is one part of the list. Most values come without repeats; read them as rough.

Test systems include WM115; WM1716; WM1745; WM3526; WM3619; WM451Lu.
What all share (experiment): cell count relative to DMSO control; melanoma cells; higher = more viable cells
Holding throughout (details): library dose: low library concentration; 72 h
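Also: cell number obtained by counting DAPI-stained nuclei in high-throughput microscope images with image analysis software, screen run in 1,536-well plates.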

For `C[As](C)SC[C@H](NC(=O)CC[C@H](N)C(=O)O)C(=O)NCC(=O)O` [Darinaparsin] + O=c1cc(-c2cccc3c2Sc2ccccc2S3)oc(N2CCOCC2)c1 [KU55933] (first compound 0.4 µM, partner dose 1 µM), the cell count in the assay with WM115 was 86.8%; in the assay on WM1716, 99.2%; in the assay with WM1745, 98.3%; with WM3526, 103%; in the assay with WM3619, 114%; in the assay with WM451Lu it was 100%.
For `Cn1cc(C2=C(c3cn(C4CCN(Cc5ccccn5)CC4)c4ccccc34)C(=O)NC2=O)c2ccccc21` [Enzastaurin] + CC(=O)c1c(C)c2cnc(Nc3ccc(N4CCNCC4)cn3)nc2n(C2CCCC2)c1=O [palbociclib] (first compound 0.8 µM, partner dose 0.04 µM), the cell count stood at 85% in the assay on WM115; 75.9% in the assay on WM1716; 72.3% in the assay on WM1745; 46.4% in the assay with WM3526; 99.4% in the assay on WM3619; 98.4% in the assay with WM451Lu.
Consider `C[C@]12O[C@H](C[C@]1(O)CO)n1c3ccccc3c3c4c(c5c6ccccc6n2c5c31)CNC4=O` [Lestaurtinib] + CCN(CC)CCNC(=O)c1c(C)[nH]c(/C=C2\C(=O)Nc3ccc(F)cc32)c1C [sunitinib] (first compound 0.004 µM, partner dose 0.4 µM), for which the cell count with WM115 turned out to be 89.6%; in the assay on WM1716, 136%; in the assay with WM1745, 86.8%; in the assay with WM3526, 81.2%; in the assay with WM3619, 97%; with WM451Lu it was 97.4%.
Consider `Cn1cc(C2=C(c3cn(C4CCN(Cc5ccccn5)CC4)c4ccccc34)C(=O)NC2=O)c2ccccc21` [Enzastaurin] + C[C@@H]1CCN(C(=O)CC#N)C[C@@H]1N(C)c1ncnc2[nH]ccc12 [CP690550] (first compound 0.8 µM, partner dose 1 µM), for which the cell count in the assay with WM115 was determined as 122%; in the assay on WM1716, 111%; with WM1745, 102%; in the assay on WM3526 it was 93.3%; with WM3619, 105%; in the assay on WM451Lu, 146%.
For `C[C@]12O[C@H](C[C@]1(O)CO)n1c3ccccc3c3c4c(c5c6ccccc6n2c5c31)CNC4=O` [Lestaurtinib] + CN1CCN(c2ccc3nc(-c4c(N)c5c(F)cccc5[nH]c4=O)[nH]c3c2)CC1 [Dovitinib] (first compound 0.004 µM, partner dose 0.1 µM), the cell count came out at 88.2% with WM115; 102% in the assay with WM1716; 86.7% with WM1745; 70.7% in the assay with WM3526; 94.8% in the assay on WM3619; 81.1% with WM451Lu.
Turning to `Cn1cc(C2=C(c3cn(C4CCN(Cc5ccccn5)CC4)c4ccccc34)C(=O)NC2=O)c2ccccc21` [Enzastaurin] + CN(C)S(=O)(=O)c1ccc2c(c1)/C(=C/c1cc3c([nH]1)CCCC3)C(=O)N2 [SU6656] (first compound 0.8 µM, partner dose 0.4 µM), the cell count with WM115 turned out to be 81.9%; in the assay with WM1716 it was 112%; with WM1745, 94.5%; in the assay with WM3526, 93%; with WM3619, 114%; in the assay with WM451Lu, 119%.
Take `Cn1cc(C2=C(c3cn(C4CCN(Cc5ccccn5)CC4)c4ccccc34)C(=O)NC2=O)c2ccccc21` [Enzastaurin] + CS(=O)(=O)CCNCc1ccc(-c2ccc3ncnc(Nc4ccc(OCc5cccc(F)c5)c(Cl)c4)c3c2)o1 [lapatinib] (first compound 0.8 µM, partner dose 0.8 µM): the cell count in the assay on WM115 came out at 97.6%; in the assay on WM1716 it was 92.5%; with WM1745, 85.8%; with WM3526, 93.5%; with WM3619, 87.6%; in the assay with WM451Lu, 98.7%.
Take `C[C@]12O[C@H](C[C@]1(O)CO)n1c3ccccc3c3c4c(c5c6ccccc6n2c5c31)CNC4=O` [Lestaurtinib] + Nc1cccc2c1CN(C1CCC(=O)NC1=O)C2=O [lenalidomide] (first compound 0.004 µM, partner dose 1 µM): the cell count with WM115 stood at 98%; with WM1716, 100%; with WM1745, 103%; in the assay with WM3526, 92.2%; with WM3619, 102%; with WM451Lu, 101%.
Regarding `N.N.[Cl][Pt][Cl]` [cisplatin] + COC(=O)c1sccc1S(=O)(=O)Nc1ccc(Nc2ccccc2)cc1OC [GSK0660] (first compound 1.6 µM, partner dose 1 µM), the cell count turned out to be 109% with WM115; 112% in the assay with WM1716; 102% in the assay with WM1745; 125% in the assay on WM3526; 66.6% in the assay with WM3619; 114% in the assay on WM451Lu.
Regarding `C[As](C)SC[C@H](NC(=O)CC[C@H](N)C(=O)O)C(=O)NCC(=O)O` [Darinaparsin] + Cn1cncc1[C@@](N)(c1ccc(Cl)cc1)c1ccc2c(c1)c(-c1cccc(Cl)c1)cc(=O)n2C [tipifarnib] (first compound 0.4 µM, partner dose 0.01 µM), the cell count in the assay on WM115 amounted to 88.2%; in the assay on WM1716, 92.3%; in the assay on WM1745, 97.2%; in the assay on WM3526, 87.5%; with WM3619 it was 90.5%; in the assay with WM451Lu, 73.8%.
For the compound `Cn1cc(C2=C(c3cn(C4CCN(Cc5ccccn5)CC4)c4ccccc34)C(=O)NC2=O)c2ccccc21` [Enzastaurin] + O=C(Oc1ccc([N+](=O)[O-])cc1)N1CCC(C(O)(c2ccc3c(c2)OCO3)c2ccc3c(c2)OCO3)CC1 [JZL184] (first compound 0.8 µM, partner dose 1 µM), the cell count in the assay on WM115 is 119%; in the assay on WM1716 it was 102%; with WM1745 it was 94.8%; in the assay with WM3526, 98.8%; in the assay on WM3619 it was 88.5%; in the assay on WM451Lu, 110%.
For the compound `C[As](C)SC[C@H](NC(=O)CC[C@H](N)C(=O)O)C(=O)NCC(=O)O` [Darinaparsin] + COCC[n+]1c2c(n(Cc3cnccn3)c1C)C(=O)c1ccccc1C2=O [YM155] (first compound 0.4 µM, partner dose 0.0004 µM), the cell count in the assay on WM115 was 83.7%; in the assay with WM1716 it was 82.6%; in the assay with WM1745, 95%; in the assay on WM3526 it was 80.4%; with WM3619, 102%; in the assay on WM451Lu it was 77.3%.
Turning to `N.N.[Cl][Pt][Cl]` [cisplatin] + Nc1nc(F)nc2c1ncn2[C@@H]1O[C@H](CO)[C@@H](O)[C@@H]1O [fludarabine] (first compound 1.6 µM, partner dose 0.2 µM), the cell count amounted to 65% with WM115; 86.3% in the assay on WM1716; 110% with WM1745; 27.6% in the assay with WM3526; 105% with WM3619; 53.3% with WM451Lu.
As to `C[C@]12O[C@H](C[C@]1(O)CO)n1c3ccccc3c3c4c(c5c6ccccc6n2c5c31)CNC4=O` [Lestaurtinib] + N#Cc1c(O)c2c(-c3ccc(-c4ccccc4O)cc3)csc2[nH]c1=O [A769662] (first compound 0.004 µM, partner dose 2 µM), the cell count was 108% in the assay with WM115; 98.6% in the assay with WM1716; 83.6% in the assay on WM1745; 83.6% in the assay with WM3526; 88% in the assay with WM3619; 113% with WM451Lu.
Take `C[As](C)SC[C@H](NC(=O)CC[C@H](N)C(=O)O)C(=O)NCC(=O)O` [Darinaparsin] + Nc1cccc2c1CN(C1CCC(=O)NC1=O)C2=O [lenalidomide] (first compound 0.4 µM, partner dose 1 µM): the cell count with WM115 came to 89.5%; in the assay with WM1716, 110%; with WM1745 it was 95.7%; in the assay with WM3526, 102%; in the assay with WM3619, 105%; with WM451Lu, 113%.
For `C[C@]12O[C@H](C[C@]1(O)CO)n1c3ccccc3c3c4c(c5c6ccccc6n2c5c31)CNC4=O` [Lestaurtinib] + C[C@@H]1CCN(C(=O)CC#N)C[C@@H]1N(C)c1ncnc2[nH]ccc12 [CP690550] (first compound 0.004 µM, partner dose 1 µM), the cell count in the assay on WM115 was 109%; in the assay with WM1716, 115%; in the assay with WM1745, 104%; with WM3526 it was 75.7%; with WM3619, 106%; in the assay with WM451Lu it was 96.6%.
As for `C[C@]12O[C@H](C[C@]1(O)CO)n1c3ccccc3c3c4c(c5c6ccccc6n2c5c31)CNC4=O` [Lestaurtinib] + Cc1cc(N2CCOCC2)cc2[nH]c(-c3c(NC[C@@H](O)c4cccc(Cl)c4)cc[nH]c3=O)nc12 [BMS536924] (first compound 0.004 µM, partner dose 0.2 µM), the cell count was found to be 106% in the assay on WM115; 89.1% in the assay on WM1716; 82.8% in the assay on WM1745; 61.1% in the assay with WM3526; 140% with WM3619; 61.7% with WM451Lu.
`Cn1cc(C2=C(c3cn(C4CCN(Cc5ccccn5)CC4)c4ccccc34)C(=O)NC2=O)c2ccccc21` [Enzastaurin] + Cn1cc(/C=C2\C(=O)Nc3cccnc32)c2ccccc21 [GW441756] (first compound 0.8 µM, partner dose 0.4 µM): the cell count in the assay with WM115 was determined as 121%; in the assay with WM1716, 112%; in the assay with WM1745, 89.7%; with WM3526, 111%; with WM3619, 92.8%; in the assay with WM451Lu, 91.2%.
On to `C[As](C)SC[C@H](NC(=O)CC[C@H](N)C(=O)O)C(=O)NCC(=O)O` [Darinaparsin] + COC(=O)c1sccc1S(=O)(=O)Nc1ccc(Nc2ccccc2)cc1OC [GSK0660] (first compound 0.4 µM, partner dose 1 µM), for which the cell count in the assay with WM115 was determined as 101%; with WM1716, 87.9%; in the assay with WM1745 it was 111%; in the assay on WM3526 it was 102%; with WM3619 it was 114%; in the assay with WM451Lu, 97.4%.
Take `Cn1cc(C2=C(c3cn(C4CCN(Cc5ccccn5)CC4)c4ccccc34)C(=O)NC2=O)c2ccccc21` [Enzastaurin] + CC(C)(C)c1cnc(CSc2cnc(NC(=O)C3CCNCC3)s2)o1 [SNS-032] (first compound 0.8 µM, partner dose 0.01 µM): the cell count in the assay on WM115 was found to be 102%; with WM1716 it was 75.8%; in the assay with WM1745, 81%; in the assay on WM3526, 91.2%; in the assay with WM3619, 120%; with WM451Lu it was 71%.
Take `Cn1cc(C2=C(c3cn(C4CCN(Cc5ccccn5)CC4)c4ccccc34)C(=O)NC2=O)c2ccccc21` [Enzastaurin] + Oc1nc(-c2ccc(C(F)(F)F)cc2)nc2c1CSCC2 [XAV939] (first compound 0.8 µM, partner dose 2 µM): the cell count is 97.6% in the assay on WM115; 81.4% in the assay with WM1716; 88.9% in the assay on WM1745; 84.2% in the assay with WM3526; 96.9% in the assay with WM3619; 115% in the assay on WM451Lu.
Turning to `Cn1cc(C2=C(c3cn(C4CCN(Cc5ccccn5)CC4)c4ccccc34)C(=O)NC2=O)c2ccccc21` [Enzastaurin] + CNC(=O)c1cc(Oc2ccc(NC(=O)Nc3ccc(Cl)c(C(F)(F)F)c3)cc2)ccn1 [sorafenib] (first compound 0.8 µM, partner dose 0.4 µM), the cell count in the assay on WM115 came to 98.5%; in the assay on WM1716, 90%; with WM1745 it was 96.3%; with WM3526, 97.2%; in the assay on WM3619, 104%; in the assay on WM451Lu it was 110%.
